The list shows a part of the results, in another mix than the full data. The list includes weakly bound sequences.

What all share (assay): protein-binding microarray (PBM)
What all share (settings): PBM: ~300 nM protein, 6 mM HEPES pH 7.8, 80 mM KCl, 0.5 mM EDTA, 0.5 mM EGTA, 6% glycerol, 35 ng/ul poly-dIdC, 1% milk, 1 h, room temperature; Ap Aiptasia and Nv Nematostella (sea anemones) / Co Capsaspora / Aq Amphimedon (sponge) / Dm Drosophila / Hu human; RHD is the Rel homology domain; high values mean tight binding; most listed sequences are background and not binding sites; double strand, one strand shown

In one assay the target is T1, GST-Ap-NF-kB RHD (UniProt A0A913YAJ5).
T1 sequence: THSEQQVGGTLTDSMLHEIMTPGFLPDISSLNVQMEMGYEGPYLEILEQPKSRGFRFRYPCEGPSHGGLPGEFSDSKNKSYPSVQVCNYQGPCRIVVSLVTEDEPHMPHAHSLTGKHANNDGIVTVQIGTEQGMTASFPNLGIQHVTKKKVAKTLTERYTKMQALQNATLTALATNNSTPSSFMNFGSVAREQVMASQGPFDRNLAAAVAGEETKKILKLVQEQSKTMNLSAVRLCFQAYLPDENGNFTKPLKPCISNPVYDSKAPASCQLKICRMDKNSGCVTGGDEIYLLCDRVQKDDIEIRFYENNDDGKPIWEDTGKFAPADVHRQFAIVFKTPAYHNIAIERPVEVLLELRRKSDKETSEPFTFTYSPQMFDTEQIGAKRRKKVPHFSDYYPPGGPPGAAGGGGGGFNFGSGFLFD

Assay [1] addresses T2, GST-Nv-NF-kB (Cys allele) (UniProt E5G601).
T2 sequence: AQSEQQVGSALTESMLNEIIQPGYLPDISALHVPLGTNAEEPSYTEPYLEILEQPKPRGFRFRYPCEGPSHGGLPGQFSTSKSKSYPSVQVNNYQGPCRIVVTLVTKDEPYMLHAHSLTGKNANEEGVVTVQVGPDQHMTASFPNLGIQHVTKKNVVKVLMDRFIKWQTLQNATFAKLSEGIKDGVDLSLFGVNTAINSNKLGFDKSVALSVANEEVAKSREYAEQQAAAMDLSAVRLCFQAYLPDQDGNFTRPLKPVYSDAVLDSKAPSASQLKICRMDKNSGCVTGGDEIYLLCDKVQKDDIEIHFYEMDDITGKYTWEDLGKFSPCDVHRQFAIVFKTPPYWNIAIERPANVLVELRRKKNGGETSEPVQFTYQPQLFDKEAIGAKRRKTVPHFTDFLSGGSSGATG

The target in a further assay is T3, GST-Co-NF-kB (UniProt F1ARL5).
T3 sequence: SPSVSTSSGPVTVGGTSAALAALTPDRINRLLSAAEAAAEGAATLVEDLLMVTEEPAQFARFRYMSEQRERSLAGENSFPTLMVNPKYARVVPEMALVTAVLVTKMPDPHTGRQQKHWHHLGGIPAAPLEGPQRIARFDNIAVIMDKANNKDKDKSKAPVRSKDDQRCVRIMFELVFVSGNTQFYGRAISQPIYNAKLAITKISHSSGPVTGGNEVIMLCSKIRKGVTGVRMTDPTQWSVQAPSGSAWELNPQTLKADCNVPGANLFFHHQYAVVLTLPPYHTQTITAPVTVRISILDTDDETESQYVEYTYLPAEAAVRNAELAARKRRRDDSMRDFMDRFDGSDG

The next assay deals with T4, GST-Dm-Relish (UniProt Q94527).
T4 sequence: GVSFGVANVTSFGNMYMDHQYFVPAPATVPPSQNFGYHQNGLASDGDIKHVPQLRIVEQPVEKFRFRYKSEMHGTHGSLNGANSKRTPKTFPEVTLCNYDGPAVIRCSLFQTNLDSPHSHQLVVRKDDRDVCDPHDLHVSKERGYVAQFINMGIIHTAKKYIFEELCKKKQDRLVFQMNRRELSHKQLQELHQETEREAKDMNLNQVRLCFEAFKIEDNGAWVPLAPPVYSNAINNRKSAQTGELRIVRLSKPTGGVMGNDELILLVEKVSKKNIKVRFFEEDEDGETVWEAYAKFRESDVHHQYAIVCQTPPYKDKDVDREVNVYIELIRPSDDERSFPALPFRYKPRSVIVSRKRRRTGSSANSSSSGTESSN

The target of the next assay is T5, GST-Aq-NF-kB (UniProt A9Y5G7).
T5 sequence: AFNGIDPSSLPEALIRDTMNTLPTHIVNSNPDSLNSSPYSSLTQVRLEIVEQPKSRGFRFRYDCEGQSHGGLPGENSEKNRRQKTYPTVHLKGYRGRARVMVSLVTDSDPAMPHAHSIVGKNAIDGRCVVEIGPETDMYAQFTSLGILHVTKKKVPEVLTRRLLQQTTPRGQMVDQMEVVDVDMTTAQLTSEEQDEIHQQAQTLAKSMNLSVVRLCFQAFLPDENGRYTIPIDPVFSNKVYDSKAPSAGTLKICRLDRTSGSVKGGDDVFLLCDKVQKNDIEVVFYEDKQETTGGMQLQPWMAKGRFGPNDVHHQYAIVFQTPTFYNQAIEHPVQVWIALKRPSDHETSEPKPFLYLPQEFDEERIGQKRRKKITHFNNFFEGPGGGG

Consider “CCGATTAACATCAGGGCACTCCATGATGTTAATCGGGTCTTGATTCGCTTGACGCTGCTG”, for which the binding signal with GST-Ap-NF-kB RHD is -0.0944 z-score; in assay [1] it was -0.521 z-score; with GST-Co-NF-kB, -0.00903 z-score; with GST-Dm-Relish it was -0.197 z-score; with GST-Aq-NF-kB, 0.122 z-score.

Consider “CCGATTAACATCATATGTCAGTCTGATGTTAATCGGGTCTTGATTCGCTTGACGCTGCTG”, for which the binding signal with GST-Ap-NF-kB RHD was -0.0216 z-score; in assay [1] it was -1.08 z-score; with GST-Co-NF-kB, -0.58 z-score; with GST-Dm-Relish, -0.996 z-score; in the assay with GST-Aq-NF-kB, -0.522 z-score.

“CCGATTAACATCACAGATCTTTGTGATGTTAATCGGGTCTTGATTCGCTTGACGCTGCTG”: the binding signal in the assay with GST-Ap-NF-kB RHD is -1.09 z-score; in assay [1], -1.02 z-score; with GST-Co-NF-kB it was -1.22 z-score; with GST-Dm-Relish, 0.368 z-score; in the assay with GST-Aq-NF-kB, -0.744 z-score.

Take “CCGATTAACATCACCTAGGACGCTGATGTTAATCGGGTCTTGATTCGCTTGACGCTGCTG”: the binding signal in the assay with GST-Ap-NF-kB RHD is -0.464 z-score; in assay [1] it was -0.577 z-score; in the assay with GST-Co-NF-kB, 0.0435 z-score; with GST-Dm-Relish it was -0.289 z-score; with GST-Aq-NF-kB it was 0.272 z-score.

For the sequence “CCGATTAACATCATCTCGTAGAATGATGTTAATCGGGTCTTGATTCGCTTGACGCTGCTG”, the binding signal in the assay with GST-Ap-NF-kB RHD was -1.48 z-score; in assay [1], -0.129 z-score; with GST-Co-NF-kB, -0.796 z-score; with GST-Dm-Relish it was -0.536 z-score; with GST-Aq-NF-kB, -0.373 z-score.

In the case of “CCGATTAACATCAGGAAATGGGATGATGTTAATCGGGTCTTGATTCGCTTGACGCTGCTG”, the binding signal with GST-Ap-NF-kB RHD was 1.33 z-score; in assay [1], -0.0611 z-score; in the assay with GST-Co-NF-kB, 0.814 z-score; with GST-Dm-Relish it was 0.295 z-score; with GST-Aq-NF-kB it was 0.515 z-score.

On to “CCGATTAACATCACTCTCATAAGTGATGTTAATCGGGTCTTGATTCGCTTGACGCTGCTG”, for which the binding signal with GST-Ap-NF-kB RHD was -0.659 z-score; in assay [1], -0.0545 z-score; in the assay with GST-Co-NF-kB, -0.711 z-score; with GST-Dm-Relish, -0.476 z-score; with GST-Aq-NF-kB, -0.533 z-score.

Turning to “CCGATTAACATCAATAAACGCTGTGATGTTAATCGGGTCTTGATTCGCTTGACGCTGCTG”, the binding signal is -0.388 z-score in the assay with GST-Ap-NF-kB RHD; 0.0176 z-score in assay [1]; -0.0386 z-score with GST-Co-NF-kB; 0.194 z-score in the assay with GST-Dm-Relish; -0.392 z-score in the assay with GST-Aq-NF-kB.

Consider “CCGATTAACATCAAGAACTAATTTGATGTTAATCGGGTCTTGATTCGCTTGACGCTGCTG”, for which the binding signal was -0.724 z-score in the assay with GST-Ap-NF-kB RHD; 0.397 z-score in assay [1]; -0.441 z-score with GST-Co-NF-kB; 0.19 z-score in the assay with GST-Dm-Relish; -0.361 z-score with GST-Aq-NF-kB.

In the case of “CCGATTAACATCAATGGCAAGGTTGATGTTAATCGGGTCTTGATTCGCTTGACGCTGCTG”, the binding signal is -0.424 z-score with GST-Ap-NF-kB RHD; -0.675 z-score in assay [1]; -0.101 z-score in the assay with GST-Co-NF-kB; -0.269 z-score in the assay with GST-Dm-Relish; -0.351 z-score with GST-Aq-NF-kB.

As for “CCGATTAACATCAATGGATTTCCTGATGTTAATCGGGTCTTGATTCGCTTGACGCTGCTG”, the binding signal was -0.733 z-score with GST-Ap-NF-kB RHD; -0.542 z-score in assay [1]; -0.0464 z-score with GST-Co-NF-kB; 1.12 z-score in the assay with GST-Dm-Relish; 0.4 z-score with GST-Aq-NF-kB.

On to “CCGATTAACATCAATCAGTATGATGATGTTAATCGGGTCTTGATTCGCTTGACGCTGCTG”, for which the binding signal with GST-Ap-NF-kB RHD was -1.2 z-score; in assay [1] it was -0.643 z-score; in the assay with GST-Co-NF-kB, -0.0937 z-score; in the assay with GST-Dm-Relish, -0.921 z-score; with GST-Aq-NF-kB, -0.561 z-score.

Take “CCGATTAACATCACTCGCCTTCTTGATGTTAATCGGGTCTTGATTCGCTTGACGCTGCTG”: the binding signal in the assay with GST-Ap-NF-kB RHD is -0.0181 z-score; in assay [1], -0.258 z-score; with GST-Co-NF-kB, 0.563 z-score; with GST-Dm-Relish, -0.436 z-score; with GST-Aq-NF-kB, -0.39 z-score.

The record behind these values is publication PMC5700166.
